# PubChem BioAssay AID463173 (ICCB-Longwood Screening Facility, Harvard Medical School, 2010)
# The whole screen tested about 52,000 compounds, of which about 4,300 (8.3%) were called active. Rule as the data show it: active = survival mostly below about 52% (no sharp cut-off); inactive = mostly above about 56%. Some of the results follow.
# Tested on: DeltatarO mutant
# Test: growth inhibition of S. aureus wild type versus tarO mutant, primary screen, teichoic acid synthesis inhibitors, RN4220, OD600 (AID 463173)
# Conditions: OD600, 18 h, hits give low values, screened at 18.75 µg/mL (by protocol)
row,Structure (SMILES),survival
1,CC1=C(C(=O)Nc2cccnc2)C(c2ccc(Cl)cc2)n2nc(-c3ccccc3)nc2N1 (stereo not given),inactive: 62%
2,COc1ccc(OC)c(S(=O)(=O)NCc2cccn2Cc2cccc(C)c2)c1,inactive: 84%
3,COc1ccc(C(=O)Nc2cccc(OCc3cc(=O)n4c5c(sc4n3)CCCC5)c2)cc1,inactive: 55%
4,Cn1c(=O)c2c(nc3n(-c4ccc(O)cc4)c(-c4ccc(Br)cc4)cn23)n(C)c1=O,inactive: 146%
5,COc1cc(OC)c(C2Nc3c(C)cccc3-c3cc(C)nn32)cc1OC (stereo not given),inactive: 184%
6,CCN1C(=O)c2ccccc2S(=O)c2ccc(C(=O)N3CCN(c4cccc(C)c4)C(C)C3)cc21 (stereo not given),inactive: 109%
7,CC1=C(c2ccc(C)cc2)S(=O)(=O)NC1=NCc1cccc(F)c1,inactive: 92%
8,COC(=O)c1ccc(NC(=O)CC2C(=O)N(c3ccc(Cl)cc3)C(=O)N2Cc2ccco2)cc1 (stereo not given),active: 37%
9,Cc1[nH]c2ccccc2c1C1N2CC3(C)CN1CC(C)(C2)C3=O (stereo not given),inactive: 77%
10,Cc1nn(C)c2c1c(C(F)(F)F)cc(=O)n2C(C)C(=O)NCc1ccc(Cl)cc1 (stereo not given),inactive: 62%
11,O=C(Nc1ccc(Br)cc1F)N1CCC(CN2CCCC2)CC1,inactive: 82%
12,CC1=C(C(=O)OCc2ccccc2)C(c2cccc(Cl)c2Cl)CC(=O)N1 (stereo not given),inactive: 90%
13,N/N=C1\C(=N/O)CCc2nonc21,inactive: 95%
14,Cc1cccc(CNC(=O)CSCc2cnn(-c3ccccc3)c2-n2cccc2)c1,inactive: 68%
15,Cc1cc(=O)[nH]c(SCC(=O)N2CCCCC2)n1,inactive: 118%
16,CCOC(=O)c1ccc(NS(=O)(=O)c2cc(-c3onc(C)c3C)ccc2C)cc1,inactive: 84%
17,COc1cc(C(=O)N2CCN(C(=O)C(Cc3cc(C)ccc3C)NC(C)=O)CC2)cc(OC)c1OC (stereo not given),inactive: 98%
18,CN1C(=O)C(=C(C#N)C#N)c2cc(Br)ccc21,inactive: 98%
19,COC(=O)c1ccc(CSc2nnc3ccc4ccccc4n23)cc1,inactive: 74%
20,CCn1cc2c(n1)-c1c(oc(C(=O)Nc3cccc(C(F)(F)F)c3)c1C)CC2,inactive: 65%
21,COc1ccccc1Cn1cc(C(=O)c2ccc(C)cc2)c(=O)c2cc3c(cc21)OCCO3,inactive: 84%
22,CCOc1cc2sc(N3CCC(C(=O)Nc4cc(C)cc(C)c4)CC3)nc2cc1Br,inactive: 114%
23,Cc1cc(=O)c2cc(C(=O)Nc3ccccc3C)ccc2[nH]1,inactive: 84%
24,COC(=O)c1cc2sc(Cl)cc2n1Cc1cc(C)ccc1C,inactive: 94%
25,CCOc1ccc(CNC(=O)CCCc2cn(C)c3ccccc23)cc1OC,inactive: 86%
